# The other results are listed elsewhere or left out.
# Columns and labels:
# Test in all cases: glycan array binding signal (z-score within array); higher = stronger binding
# Conditions in all cases: glycan notation: IUPAC condensed, linker removed
# [1] = target: Fuc(a1-3)[Gal(b1-4)]GlcNAc(b1-2)Man(a1-3)[Fuc(a1-3)[Gal(b1-4)]GlcNAc(b1-2)Man(a1-6)]Man(b1-4)GlcNAc(b1-4)GlcNAc
# Outline: (§1)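 Glycan array data were curated from 3228 arrays in the Consortium for Functional Glycomics database and kept only where the protein sequence was available. Glycan names were converted to IUPAC-condensed notation, and columns mapping to the same glycan were averaged. The binding signal is a within-array Z-score, averaged across arrays of the same protein sequence at different concentrations or buffers and across linkers. Negative Z-scores can be read as non-binding.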
# [2] = target: Fuc(a1-3)[Gal(b1-4)]GlcNAc(b1-2)Man(a1-3)[Fuc(a1-3)[Gal(b1-4)]GlcNAc(b1-2)Man(a1-6)]Man(b1-4)GlcNAc(b1-4)[Fuc(a1-6)]GlcNAc
# Outline: as §1
# [3] = target: Fuc(a1-3)[Gal(b1-4)]GlcNAc(b1-3)Gal(b1-3)[Fuc(a1-4)]GlcNAc
# Outline: as §1
# [4] = target: Fuc(a1-3)[Gal(b1-4)]GlcNAc(b1-3)GalNAc
# Outline: as §1
# [5] = target: Fuc(a1-3)[Gal(b1-4)]GlcNAc(b1-4)Gal(b1-4)[Fuc(a1-3)]GlcNAc
# Outline: as §1
# [6] = target: Fuc(a1-3)[Gal(b1-4)]GlcNAc(b1-4)Gal(b1-4)[Fuc(a1-3)]GlcNAc(b1-4)Gal(b1-4)[Fuc(a1-3)]GlcNAc
# Outline: as §1
# [7] = target: Fuc(a1-3)[Gal(b1-4)]GlcNAc(b1-6)GalNAc
# Outline: as §1
# [8] = target: Fuc(a1-3)[Gal(b1-4)]GlcNAc(b1-6)[Gal(b1-3)GlcNAc(b1-3)]Gal(b1-4)Glc
# Outline: as §1
# [9] = target: Fuc(a1-3)[Gal(b1-4)]GlcNAc(b1-6)[Neu5Ac(a2-3)Gal(b1-3)]GalNAc
# Outline: as §1
# [10] = target: Fuc(a1-3)[Gal(b1-4)]GlcNAc6S
# Outline: as §1
# [11] = target: Fuc(a1-3)[Gal3S(b1-4)]GlcNAc
# Outline: as §1
# [12] = target: Fuc(a1-3)[Gal3S(b1-4)]GlcNAc6S
# Outline: as §1
# [13] = target: Fuc(a1-3)[GalNAc(b1-4)]GlcNAc
# Outline: as §1
# Fuc(a1-4)GlcNAc = target: Fuc(a1-4)GlcNAc
# Outline: as §1
# Fuc(b1-3)GlcNAc = target: Fuc(b1-3)GlcNAc
# Outline: as §1
# Gal(a1-2)Gal = target: Gal(a1-2)Gal
# Outline: as §1
# Gal(a1-3)Gal = target: Gal(a1-3)Gal
# Outline: as §1
# Gal(a1-3)Gal(b1-3)GlcNAc = target: Gal(a1-3)Gal(b1-3)GlcNAc
# Outline: as §1
# [14] = target: Gal(a1-3)Gal(b1-3)GlcNAc(b1-2)Man(a1-3)[Gal(a1-3)Gal(b1-3)GlcNAc(b1-2)Man(a1-6)]Man(b1-4)GlcNAc(b1-4)GlcNAc
# Outline: as §1
# [15] = target: Gal(a1-3)Gal(b1-3)GlcNAc(b1-3)GalNAc
# Outline: as §1
# [16] = target: Gal(a1-3)Gal(b1-3)[Fuc(a1-4)]GlcNAc(b1-2)Man(a1-3)[Gal(a1-3)Gal(b1-3)[Fuc(a1-4)]GlcNAc(b1-2)Man(a1-6)]Man(b1-4)GlcNAc(b1-4)GlcNAc
# Outline: as §1
# Gal(a1-3)Gal(b1-4)Glc = target: Gal(a1-3)Gal(b1-4)Glc
# Outline: as §1
# Gal(a1-3)Gal(b1-4)GlcNAc = target: Gal(a1-3)Gal(b1-4)GlcNAc
# Outline: as §1
# [17] = target: Gal(a1-3)Gal(b1-4)GlcNAc(b1-3)GalNAc
# Outline: as §1
# [18] = target: Gal(a1-3)Gal(b1-4)[Fuc(a1-3)]GlcNAc
# Outline: as §1
# [19] = target: Gal(a1-3)Gal(b1-4)[Fuc(a1-3)]GlcNAc(b1-2)Man(a1-3)[Gal(a1-3)Gal(b1-4)[Fuc(a1-3)]GlcNAc(b1-2)Man(a1-6)]Man(b1-4)GlcNAc(b1-4)GlcNAc
# Outline: as §1
# Gal(a1-3)GalNAc = target: Gal(a1-3)GalNAc
# Outline: as §1
# [20] = target: Gal(a1-3)[Gal(a1-4)]Gal(b1-4)GlcNAc
# Outline: as §1
# [21] = target: Gal(a1-4)Gal(b1-3)GlcNAc(b1-2)Man(a1-3)[Gal(a1-4)Gal(b1-3)GlcNAc(b1-2)Man(a1-6)]Man(b1-4)GlcNAc(b1-4)GlcNAc
# Outline: as §1
# Gal(a1-4)Gal(b1-4)Glc = target: Gal(a1-4)Gal(b1-4)Glc
# Outline: as §1
# Gal(a1-4)Gal(b1-4)GlcNAc = target: Gal(a1-4)Gal(b1-4)GlcNAc
# Outline: as §1
# [22] = target: Gal(a1-4)Gal(b1-4)GlcNAc(b1-2)Man(a1-3)[Gal(a1-4)Gal(b1-4)GlcNAc(b1-2)Man(a1-6)]Man(b1-4)GlcNAc(b1-4)GlcNAc
# Outline: as §1
# [23] = target: Gal(a1-4)Gal(b1-4)GlcNAc(b1-3)Gal(b1-4)Glc
# Outline: as §1
# Gal(a1-4)GlcNAc = target: Gal(a1-4)GlcNAc
# Outline: as §1
# Gal(a1-6)Glc = target: Gal(a1-6)Glc
# Outline: as §1
# Gal(b1-2)Gal = target: Gal(b1-2)Gal
# Outline: as §1
# Gal(b1-3)Gal = target: Gal(b1-3)Gal
# Outline: as §1
binder,measurement,setting,value
"FedF (Escherichia coli), Q47212 (protein) MRLKYILIIPLLLISLSVFASTLQVDKSVSYDWINSSASSAQVTGTLLGTGKTNTTQMPALYTWQHQIYNVNFIPSSSGTLTCQAGTILVWKNGRETQYALECRVSIHHSSGSINESQWGQQSQVGFGTACGNKKCRFTGFEISLRIPPNAQTYPLSSGDLKGSFSLTNKEVNWSASIYVPAIAKSYRLDTSITLPDTVNLKQNQATPVYYTFSAPSVSNTITGIPNQNDMPSSNVKLTIGPIQSKTTALYVQPDATGSWYDLSKSITMTVVKSSMLNFKGINAKPGNVTLSVPIVFEIQ",glycan array binding signal (z-score),[1],-0.084
same,glycan array binding signal (z-score),[2],-0.17
same,glycan array binding signal (z-score),[3],-0.053
same,glycan array binding signal (z-score),[4],0.025
same,glycan array binding signal (z-score),[5],-0.225
same,glycan array binding signal (z-score),[6],0.399
same,glycan array binding signal (z-score),[7],-0.079
same,glycan array binding signal (z-score),[8],-0.163
same,glycan array binding signal (z-score),[9],-0.14
same,glycan array binding signal (z-score),[10],-0.156
same,glycan array binding signal (z-score),[11],-0.305
same,glycan array binding signal (z-score),[12],-0.194
same,glycan array binding signal (z-score),[13],-0.44
same,glycan array binding signal (z-score),Fuc(a1-4)GlcNAc,-0.398
same,glycan array binding signal (z-score),Fuc(b1-3)GlcNAc,-0.307
same,glycan array binding signal (z-score),Gal(a1-2)Gal,-0.343
same,glycan array binding signal (z-score),Gal(a1-3)Gal,-0.304
same,glycan array binding signal (z-score),Gal(a1-3)Gal(b1-3)GlcNAc,-0.269
same,glycan array binding signal (z-score),[14],-0.111
same,glycan array binding signal (z-score),[15],0.095
same,glycan array binding signal (z-score),[16],-0.162
same,glycan array binding signal (z-score),Gal(a1-3)Gal(b1-4)Glc,0.097
same,glycan array binding signal (z-score),Gal(a1-3)Gal(b1-4)GlcNAc,0.095
same,glycan array binding signal (z-score),[17],-0.17
same,glycan array binding signal (z-score),[18],-0.432
same,glycan array binding signal (z-score),[19],-0.084
same,glycan array binding signal (z-score),Gal(a1-3)GalNAc,-0.219
same,glycan array binding signal (z-score),[20],-0.385
same,glycan array binding signal (z-score),[21],-0.191
same,glycan array binding signal (z-score),Gal(a1-4)Gal(b1-4)Glc,0.091
same,glycan array binding signal (z-score),Gal(a1-4)Gal(b1-4)GlcNAc,-0.257
same,glycan array binding signal (z-score),[22],0.264
same,glycan array binding signal (z-score),[23],-0.146
same,glycan array binding signal (z-score),Gal(a1-4)GlcNAc,-0.22
same,glycan array binding signal (z-score),Gal(a1-6)Glc,0.241
same,glycan array binding signal (z-score),Gal(b1-2)Gal,-0.264
same,glycan array binding signal (z-score),Gal(b1-3)Gal,0.09
